Results taken from publication PMC4336329 (PLoS ONE, 2015).
The campaign covered roughly 310,000 compounds. About 2,200 (0.71%) showed an effect of 50% or more. The effect is printed as a negative number. The list shows a part of the results.

Target: human ether-à-go-go-related gene (hERG) potassium channel (human, UniProt Q12809)
Assay: primary screen, population patch clamp on CHO cells stably expressing hERG

human ether-à-go-go-related gene (hERG) potassium channel, sequence (Q12809 whole entry, looked up): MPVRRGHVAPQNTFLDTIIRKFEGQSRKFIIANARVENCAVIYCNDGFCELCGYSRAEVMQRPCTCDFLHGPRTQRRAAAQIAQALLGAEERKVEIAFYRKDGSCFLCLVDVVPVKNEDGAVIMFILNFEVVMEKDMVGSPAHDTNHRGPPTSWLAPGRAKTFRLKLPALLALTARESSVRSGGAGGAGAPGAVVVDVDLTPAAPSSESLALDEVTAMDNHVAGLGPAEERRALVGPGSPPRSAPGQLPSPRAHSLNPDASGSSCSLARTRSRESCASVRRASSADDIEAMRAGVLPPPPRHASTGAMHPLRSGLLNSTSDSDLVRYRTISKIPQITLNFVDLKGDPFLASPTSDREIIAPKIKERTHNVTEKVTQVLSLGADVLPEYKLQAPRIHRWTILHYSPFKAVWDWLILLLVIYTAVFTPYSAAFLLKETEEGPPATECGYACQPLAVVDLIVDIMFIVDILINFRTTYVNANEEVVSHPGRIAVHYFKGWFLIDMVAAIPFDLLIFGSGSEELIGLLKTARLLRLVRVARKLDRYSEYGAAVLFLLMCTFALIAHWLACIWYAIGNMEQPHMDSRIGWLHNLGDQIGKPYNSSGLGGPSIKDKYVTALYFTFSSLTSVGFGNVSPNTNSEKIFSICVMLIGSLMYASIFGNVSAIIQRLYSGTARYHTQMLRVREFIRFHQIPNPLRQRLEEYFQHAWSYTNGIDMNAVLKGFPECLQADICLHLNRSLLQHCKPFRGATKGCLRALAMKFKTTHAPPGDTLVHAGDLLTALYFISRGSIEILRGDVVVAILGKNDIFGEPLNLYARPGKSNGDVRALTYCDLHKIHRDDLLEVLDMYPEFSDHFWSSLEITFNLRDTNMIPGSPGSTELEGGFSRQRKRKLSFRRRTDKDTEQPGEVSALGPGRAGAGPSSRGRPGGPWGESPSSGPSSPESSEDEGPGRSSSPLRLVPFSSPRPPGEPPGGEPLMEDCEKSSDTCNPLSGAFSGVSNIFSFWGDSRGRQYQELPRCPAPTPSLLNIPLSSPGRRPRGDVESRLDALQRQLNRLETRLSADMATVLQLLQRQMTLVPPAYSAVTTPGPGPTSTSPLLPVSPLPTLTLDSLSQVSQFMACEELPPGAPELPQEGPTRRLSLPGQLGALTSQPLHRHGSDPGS

| SMILES | hERG current change (%, negative = inhibition) at 1uM [%] |
| --- | --- |
| CCN(CC)S(=O)(=O)c1cc(NC(=O)NCCCl)ccc1C | 3.83 |
| CC(CC(=O)NNC(=O)c1cccc(Cl)c1)c1ccccc1 (centres unmarked) | 10.8 |
| c1ccc(-c2nc(-n3nc4ccccc4n3)nc3ccccc23)cc1 | 9.55 |
| O=c1[nH]c2cc3c(cc2cc1C(c1nnnn1CC1CCCO1)N1CCCCCC1)OCCO3 (centres unmarked) | 2.29 |
| Cc1sc2nc(C3CC3)nc(SCC(=O)N3CC(=O)Nc4ccccc43)c2c1C | 11.3 |
| CC(C)Oc1ccc(S(=O)(=O)N2CCCCC2)cc1NC(=O)CN1CCCC1c1cccs1 (centres unmarked) | 13.2 |
| CCC(=O)c1ccc(OCC(=O)OCC(=O)N2CCCc3ccccc32)cc1 | 16.2 |
| Cc1ccc(C)c(N(CC(=O)NC(C)(C)C)C(=O)CCC(=O)Nc2nccs2)c1 | 17.9 |
| COc1ccc2[nH]c(C)c(CCN(Cc3cccs3)C(=S)Nc3ccc(F)cc3)c2c1 | 6.92 |
| COc1ccc2c(c1)C1=C(CC2)C(c2ccc(C)cc2)NC(=S)N1 (centres unmarked) | 6.13 |
| COCCNS(=O)(=O)c1ccc2c(c1)C(=NO)c1cc(S(=O)(=O)NCCOC)ccc1-2 | 11 |
| COc1ccccc1N1CCN(C2CCCCC2NS(=O)(=O)c2ccc(Cl)cc2)CC1 (centres unmarked) | 7.26 |
| CCN1C(=O)N[C@@H](c2cccs2)C(C(C)=O)=C1C | 13.3 |
| CCNc1nc(NCC)n2c(SCC(=O)N3CC4(C)CC3CC(C)(C)C4)nnc2n1 (centres unmarked) | 10.3 |
| COC(=O)c1ccc2c(=O)n(CCCCCC(=O)O)c(=O)[nH]c2c1 | 3.98 |
| CN(C)/C=C/C(=O)c1ccc(Br)s1 | 13.2 |
| COC(=O)CSc1nc(C)cc(C)n1 | 9.24 |
| CCN(CC)S(=O)(=O)c1cc(C(=O)OC)ccc1Cl | 17 |
| Cc1oc(-c2ccc(Cl)cc2)nc1CS(=O)CC(=O)NCc1cccs1 (centres unmarked) | -3.11 |

| SMILES | hERG current change (%, negative = inhibition) at 1uM [%] |
| --- | --- |
| O=C(COC(=O)c1ccc(F)cc1F)Nc1ccc2[nH]c(=O)[nH]c2c1 | 30.7 |
| COc1ccc(CNC(=O)C2CCN(c3nn4c(=O)cc(C)nc4s3)CC2)cc1 | 20.3 |
| CC(=O)Nc1ccc(C(=O)Nc2cc(C)on2)cc1 | 18.2 |
| CC1CN(C(=S)NC(=O)c2cccc([N+](=O)[O-])c2)CC(C)O1 (centres unmarked) | 12.2 |
| COc1ccccc1-n1c(SCC(N)=O)nc2sc3c(c2c1=O)CCC3 | 4.03 |
| O=C(N/N=C/c1cccnc1)C(=O)N1CCCCCC1 | 11.8 |
| COc1ccc(C(=O)Nc2ccc(C3CC3(Cl)Cl)cc2)cc1 (centres unmarked) | 14.2 |
| Cc1ccc(-n2nc3cc(C)c(NC(=S)NC(=O)/C=C/c4ccco4)cc3n2)cc1 | 14.7 |
| c1ccc2c(c1)OCCOCCOCCOCCOCCOc1ccccc1OCCOCCOCCO2 | -8.98 |
| COc1ccnc(Oc2ccc(F)cc2)c1C(=O)N/C=N/OCc1cccc(F)c1 | 4.83 |
| Cc1cc(NC(=O)c2ccc(C#N)cc2)n(-c2ccccn2)n1 | -2.65 |
| CC1CN(C(=O)COC(=O)c2cc(=O)c3ccccc3o2)CC(C)O1 (centres unmarked) | 12.7 |
| CCN(CC)c1ccc(NC(=O)CSc2nc3ccccc3c(=O)[nH]2)cc1 | 3.02 |
| C[C@]12CCC(=O)C=C1CC[C@@H]1[C@@H]2CC[C@@]2(C)[C@H]1CC[C@@]21CCC(=O)O1 | 4.4 |
| Cc1ccc(-c2nnc(C)c(N3CC(C)OC(C)C3)n2)cc1 (centres unmarked) | 8.63 |
| CSc1cccc(N2CC(C(=O)NCCC3=CCCCC3)CC2=O)c1 (centres unmarked) | 17.4 |
| Cc1ccc(CSc2nc3c(c(=O)[nH]c(=O)n3C)n2CCC(C)C)cc1 | 13.1 |
| COCCSc1nnc(NC(=O)COC)s1 | 12.7 |
| CCOC(=O)c1c(N)nn(C(=O)c2ccccc2F)c1-c1ccc(OC)cc1 | 7.45 |

| SMILES | hERG current change (%, negative = inhibition) at 1uM [%] |
| --- | --- |
| Cc1ccc(C)c(OCCC(=O)OCC(=O)NCCNC(=O)COC(=O)CCOc2cc(C)ccc2C)c1 | 6.53 |
| COC(=O)c1sc(S(=O)(=O)N2CC[NH+](CCO)CC2)c(C(=O)OC)c1C.[Cl-] | 8.37 |
| COc1cccc(CNCCc2c[nH]c3ccccc23)c1OC.Cl | 7.49 |
| COc1ccccc1C(=O)N1CCN(S(=O)(=O)c2ccccc2)CC1 | 5.19 |
| CC1CCc2sc(C(=O)NNC(=S)NCC3CCCO3)cc2C1 (centres unmarked) | 4.8 |
| CC(C)(C)c1ccccc1NC(=O)c1ccco1 | 13.9 |
| CCOc1ccc(/C(C)=N/NC(=O)Cn2nc([N+](=O)[O-])cc2C)cc1 | 11 |
| CS(=O)(=O)N1CCc2cc(S(=O)(=O)Nc3ccc4c(c3)OCCO4)ccc21 | 5.43 |
| C#CCn1c(-c2cccs2)nc2ccccc21 | 9.03 |
| CCOC(=O)COc1ccc2c(c1)C(=O)CC(C)(c1cccnc1)O2 (centres unmarked) | 14.5 |
| O=C1C(CCS(=O)c2ccccc2)C(=O)N(c2ccccc2)N1c1ccccc1 (centres unmarked) | 16.9 |
| COC(=O)c1sccc1NC(=O)Cn1cnc2c1c(=O)n(C)c(=O)n2C | 8.94 |
| CC(C)(C)OC(=O)NN=C(c1ccc(O)cc1)c1ccc(O)cc1 | 14.3 |
| COc1ccc(OC)c(NC(=O)c2ccccc2NS(=O)(=O)c2cccc3cccnc23)c1 | 14 |
| CCCCN(C(=O)CNC(=O)c1ccco1)C(C(=O)NC1CCCC1)c1ccc(OC)cc1 (centres unmarked) | -7 |
| O=C(CN1CCN(Cc2ccccc2Cl)C1=O)NC1CCCCCCC1 | 9.62 |
| CS(=O)(=O)N1CCN(c2ccc(NC(=O)c3ccccc3)cc2)CC1 | -16.3 |
| O=S(=O)(c1ccc(Oc2ccc(S(=O)(=O)N3CCOCC3)cc2)cc1)N1CCOCC1 | 13.7 |
